From PubChem BioAssay AID2546 (National Center for Advancing Translational Sciences (NCATS), 2010)
Hit rate of the full screen: of about 310,000 compounds, about 11,000 (3.5%) were called active. This list was built around the results that the source calls inconclusive (neither active nor inactive); the mix of calls is not that of the screen. Calls follow the shape of the dose curve; as a rule, active = well fitted inhibition curve with a large enough effect; inconclusive = small, poorly fitted or top-dose-only effect, or effect the other way; inactive = flat fitted curve, though single readings scatter. Potencies of inconclusive entries are left out as doubtful fits.

Test: VP16 counterscreen qHTS for inhibitors of ROR gamma transcriptional activity;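 also: Gal4-VP16 expression switched on by copper sulfate through the metallothionein promoter; nearly all actives have a fitted effect of over 50% in size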
Conditions: Drosophila S2 Gal4-VP16 UAS-luciferase, luminescence, 20 h; series mostly up to 53.6 µM
Potency is read from the fitted curve at half-maximal effect; tags tell the direction and shape of the fitted curve.

Row | Structure (SMILES) | Potency
1 | COCC(=O)N1CCC2(CC1)CCN(c1ccccc1)CC2 | inactive
2 | Cc1cccnc1Nc1nc(-c2ccc(O)cc2)cs1 | inconclusive [inhibitor, single point]
3 | CC(=O)CC1OC(=O)C(Br)=C1NCc1ccccc1 (stereo not given) | active: 20 µM
4 | CC(C)CC(=O)NC(=S)Nc1ccccn1 | active: 20 µM
5 | Cc1ccc(C(=O)N2N=C(c3ccccc3)CC2(O)C(F)(F)F)o1 (stereo not given) | inactive
6 | COC(=O)CC(NC(=O)C1CC1)c1ccc2c(c1)OCO2 (stereo not given) | inactive
7 | CC1CCc2nc(NC(=O)C3CCCO3)sc2C1 (stereo not given) | inconclusive [inhibitor, single point]
8 | O=C(COC(=O)c1cc(NS(=O)(=O)c2cccs2)ccc1O)Nc1cc(Cl)ccc1Cl | active: 12.6 µM
9 | CCOC(=O)c1oc2ccccc2c1NC(=O)CN1CCOCC1 | inconclusive [inhibitor, single point]
10 | CC(=O)NCC(=O)OC(C(=O)c1ccccc1)c1ccc(Cl)cc1 (stereo not given) | inactive
11 | COCc1ccc(CN2CCC(n3nccc3NC(=O)C(OC)c3ccccc3)CC2)o1 (stereo not given) | inconclusive [inhibitor, partial curve]
12 | COC(=O)c1ccc2nc(-c3ccc4c(c3)OCO4)cn2c1 | inconclusive [inhibitor, full curve]
13 | COc1ccc(-n2c(CCc3ccccc3)nnc2SCC(=O)c2ccc(Cl)cc2)cc1 | inconclusive [inhibitor, single point]
14 | CCc1ccc(C2CC(c3cccc(Cl)c3)n3nc(N)nc3N2)cc1 (stereo not given) | inconclusive [inhibitor, single point]
15 | CCC1CCCCN1C(=O)c1cc(COc2ccc3ncccc3c2)on1 (stereo not given) | active: 2.82 µM
16 | CC(C)Cc1ccc(CC(=O)O)cc1 | inactive
17 | COc1ccc(OC)c(C2C3=C(N=c4s/c(=C\c5cccc(O)c5)c(=O)n42)c2ccccc2CC3)c1 (stereo not given) | inconclusive [inhibitor, single point]
18 | COCCn1nnnc1C(c1cccs1)N1CCN(c2cc(C)ccc2C)CC1 (stereo not given) | inconclusive [inhibitor, single point]
19 | O=C(CN1C(=O)c2ccccc2S1(=O)=O)c1ccccc1F | inconclusive [inhibitor, single point]
20 | Cc1ccc(NC(=S)N/N=C/c2ccc([N+](=O)[O-])s2)cc1 | active: 15.8 µM
21 | CCOc1ccc(C(=O)Nc2ccc(NC(=S)NC(=O)CC)cc2)cc1Cl | inactive
22 | NC(=O)CC(NC(=O)c1ccccc1)c1ccc(NCCc2ccc(Cl)cc2)c([N+](=O)[O-])c1 (stereo not given) | inactive
23 | CC1CC(C)CN(CCCNC(=O)CN2C(=O)c3cccnc3Oc3ccc(Cl)cc32)C1 (stereo not given) | inconclusive [activator, single point]
24 | Oc1ccc(-c2cnc(-c3ccc(O)cc3)nc2)cc1 | inconclusive [inhibitor, full curve]
25 | COC(=O)c1ccc(C(NC(=O)OCc2ccccc2)/C(C)=C/[C@@H](C)C(=O)NC2CCCCC2)cc1 (stereo not given in full) | inactive

Row | Structure (SMILES) | Potency
26 | Cc1cccc(CC2S/C(=N/c3ccccn3)NC2=O)c1 (stereo not given) | inconclusive [inhibitor, single point]
27 | CCC(/C=C1\Sc2ccc(OC)cc2N1CCO)=C\c1sc2ccc(OC)cc2[n+]1CCO | inconclusive [inhibitor, single point]
28 | Cn1ncc2c(Nc3cccc(Cl)c3)nc(Nc3cccc(Cl)c3)nc21 | inconclusive [inhibitor, single point]
29 | COc1cc(-c2nc(C(=O)NC3CCN(Cc4ccccc4)CC3)cc3c2[nH]c2ccccc23)cc(OC)c1OC | inconclusive [inhibitor, single point]
30 | CCN(CCCn1c(=S)[nH]c2ccc(N3CCOCC3)cc2c1=O)c1ccccc1 | inconclusive [inhibitor, single point]
31 | O=C(N/N=C/c1ccc(O)c([N+](=O)[O-])c1)C(O)(c1ccccc1)c1ccccc1 | inconclusive [inhibitor, single point]
32 | CCOC(=O)CNC(=O)CN1C(=O)CC(c2ccco2)Sc2ccccc21 (stereo not given) | inactive
33 | O=C(/C=C/Nc1ccc(F)cc1F)c1ccco1 | active: 7.08 µM
34 | CCN1CNC(=S)N(CCc2ccccc2)C1 | active: 12.6 µM
35 | Oc1ccc(Cl)cc1-c1cc(-c2ccccc2Cl)[nH]n1 | active: 10 µM
36 | O=C(CCN1CCCCC1)c1ccc2c(c1)OCCO2 | active: 7.94 µM
37 | CC[C@@]12C(=O)N(c3ccccc3)C(=O)N1[C@H](c1cccc(C)c1)[C@@H]1C(=O)N(Cc3ccccc3)C(=O)[C@@H]12 | inconclusive [inhibitor, partial curve]
38 | O=[N+]([O-])c1cc(Cl)cc(/C=N\Nc2ccccn2)c1O | active: 1.12 µM
39 | CCCC(C)C(=O)Nc1nc(C)c(-c2csc(Nc3ccc(Cl)cc3)n2)s1 (stereo not given) | active: 11.2 µM
40 | CC(=O)n1cc(/C=N/NC(=O)c2ccc(Cl)cc2)c2ccccc21 | inconclusive [inhibitor, single point]
41 | S=c1[nH]nc(C2CC2c2ccc(Cl)cc2)n1-c1ccc(Cl)cc1 (stereo not given) | inconclusive [inhibitor, single point]
42 | CCCNC(=O)CC(NS(=O)(=O)c1ccc(NC(C)=O)cc1)C(C)C (stereo not given) | inactive
43 | NC(=O)C1CCN(CCS(=O)(=O)c2ccc(Cl)cc2)CC1 | inactive
44 | O=C1OC2(c3cc(I)c(O)c(I)c3Oc3c2cc(I)c(O)c3I)c2c(Cl)c(Cl)c(Cl)c(Cl)c21 | inconclusive [inhibitor, partial curve]
45 | OCCN(CCO)Cc1ccc(Br)cc1 | inactive
46 | CCOc1ccccc1N=c1oc2cc(O)ccc2cc1C(=O)NCC1CCCO1 (stereo not given) | inconclusive [inhibitor, partial curve]
47 | O=C1C2C3C=CC(CNS(=O)(=O)c4ccccc4)(O3)C2C(=O)N1c1ccc(Cl)cc1 (stereo not given) | inconclusive [inhibitor, single point]
48 | COc1cc(/C=C/C(=O)c2ccc(O)cc2)ccc1OCC#N | inconclusive [inhibitor, single point]
49 | Cc1ccc2[nH]c(O)c(N=NC(=O)C3CC3c3ccccc3)c2c1Br (stereo not given) | inconclusive [inhibitor, single point]
50 | CC1=NN(c2ccc(Cl)cc2)C(=O)C1C(c1ccccc1O)c1c(C)[nH]n(-c2ccc(Cl)cc2)c1=O (stereo not given) | inconclusive [inhibitor, single point]

Row | Structure (SMILES) | Potency
51 | COc1ccc(-c2c(-c3ccc(OCC(=O)NN)cc3O)n[nH]c2C)cc1 | inconclusive [inhibitor, single point]
52 | COc1ccc(N(CC(=O)N/N=C(\C)c2ccccc2)S(=O)(=O)c2ccccc2)cc1 | inactive
53 | Cc1cc(CC(C)C)n(-c2nc3ccccc3c(=O)n2OCc2ccccc2)n1 | inconclusive [inhibitor, single point]
54 | O=C(Cc1cccs1)Nc1ccccn1 | inactive
55 | Nc1nc(NCc2ccco2)nc(N2CCCCCC2)c1[N+](=O)[O-] | inconclusive [inhibitor, single point]
56 | COCCCNC(=S)NCCNc1nc2cc(C)cc(C)c2cc1C#N | inconclusive [inhibitor, single point]
57 | COc1cc(-c2c(C#N)c(N)nc3c2CCCC3)ccc1O | inactive
58 | Cc1ccc(-c2cc(C(=O)NC3=NCCS3)c3ccccc3n2)cc1C | active: 11.2 µM
59 | Cc1cc(N2CCN(C)CC2)nc2ccc(NC(=S)NCCN3CCc4ccccc4C3)cc12 | inconclusive [inhibitor, single point]
60 | COc1ccc(NC2=Nc3cccc4cccc2c34)cc1 | inconclusive [inhibitor, single point]
61 | Cc1cc(C(=O)Nc2ccc3ccccc3c2)c(C)o1 | inconclusive [inhibitor, partial curve]
62 | CCOc1ccc2[nH]c3c(N4CCN(c5ccccn5)CC4)ncnc3c2c1 | inconclusive [inhibitor, single point]
63 | Cc1ccccc1-n1ncc2c(SCC(=O)NC3CCCC3)ncnc21 | inconclusive [inhibitor, single point]
64 | Cc1nc(NC(C)c2ccccc2)sc1C(=O)Nc1ccccc1 (stereo not given) | inactive
65 | O=C(Nc1cccc(S(=O)(=O)Nc2ccccc2Cl)c1)c1ccc(Cl)nc1 | active: 6.31 µM
66 | COC(=O)Nc1ccc(S(=O)(=O)N2CCCc3ccccc32)cc1 | inactive
67 | Cc1c(N2C(=O)c3ccc(Br)cc3C2=O)c(=O)n(-c2ccccc2)n1C | inconclusive [inhibitor, single point]
68 | CC(=O)c1cn(CC(=O)Nc2ccccc2C(F)(F)F)c2ccccc12 | inconclusive [inhibitor, single point]
69 | CCN(CC)C(=O)c1ccc(COc2ccc(Cl)c(C)c2)o1 | inconclusive [inhibitor, single point]
70 | O=C(NNc1ccnc2cc(Cl)ccc12)C1CCCCC1 | inconclusive [inhibitor, full curve]
71 | CN1CCN(C(=S)NC(=O)c2ccccc2Cl)CC1 | active: 17.8 µM
72 | Cc1c(O)ccc2c(CN3CCOCC3)cc(=O)oc12 | inactive
73 | COc1ccc(C(C)=O)cc1Cn1c(=O)cc(C)[nH]c1=O | inactive
74 | C=CCNc1nnc(Sc2ncccc2[N+](=O)[O-])s1 | inactive
75 | CCOC(=O)N1CCN(C(=O)CCSc2ccccc2)CC1 | inconclusive [inhibitor, single point]
